Measured values: the antibiotic and cytotoxicity screens of Wong et al. (2023)
The list shows a part of the results.

Experiments:
HSkMC = human skeletal muscle cells; assay: cytotoxicity call (relative viability < 0.9); details: 10 µM
HepG2 = assay: cytotoxicity call (relative viability < 0.9); details: 10 µM
S. aureus RN4220 = assay: growth inhibition call (relative growth <= 0.2); details: 50 µM

C[C@@H]1CCCCO[C@@H](CN(C)C(=O)CCC(F)(F)F)[C@H](C)CN([C@@H](C)CO)C(=O)c2cc(NS(=O)(=O)c3ccc(F)cc3)ccc2O1
inactive: cytotoxicity call (HSkMC) | cytotoxicity call (HepG2) | growth inhibition call (S. aureus RN4220)

COc1ccc(S(=O)(=O)Nc2cccc3c2O[C@H](CN(C)Cc2ccncc2)[C@H](C)CN([C@H](C)CO)C3=O)cc1
inactive: cytotoxicity call (HSkMC) | cytotoxicity call (HepG2) | growth inhibition call (S. aureus RN4220)

Cc1ccc(S(=O)(=O)N(C)C[C@@H]2OCCCC[C@@H](C)Oc3ccc(NC(=O)C4CCCCC4)cc3C(=O)N([C@@H](C)CO)C[C@H]2C)cc1
inactive: cytotoxicity call (HSkMC) | cytotoxicity call (HepG2) | growth inhibition call (S. aureus RN4220)

C[C@@H]1CN([C@H](C)CO)C(=O)c2cc(NS(C)(=O)=O)ccc2O[C@@H](C)CCCCO[C@@H]1CN(C)Cc1ccc(Cl)c(Cl)c1
inactive: cytotoxicity call (HSkMC) | cytotoxicity call (HepG2) | growth inhibition call (S. aureus RN4220)

COc1ccc(S(=O)(=O)Nc2ccc3c(c2)CC(=O)N([C@@H](C)CO)C[C@@H](C)[C@@H](CN(C)Cc2ccncc2)O3)cc1
inactive: cytotoxicity call (HSkMC) | cytotoxicity call (HepG2) | growth inhibition call (S. aureus RN4220)

COc1ccc(S(=O)(=O)Nc2cccc3c2O[C@H](CN(C)S(=O)(=O)c2c(C)noc2C)[C@H](C)CN([C@@H](C)CO)C3=O)cc1
inactive: cytotoxicity call (HSkMC) | cytotoxicity call (HepG2) | growth inhibition call (S. aureus RN4220)

NC[C@](O)(c1cccs1)C1CC1
inactive: cytotoxicity call (HSkMC) | cytotoxicity call (HepG2) | growth inhibition call (S. aureus RN4220)

CC1(C)OC(=O)C2(C(=O)O1)[C@@H](c1ccc(-c3ccc(C(F)(F)F)cc3)cc1)CC(=O)C[C@H]2c1ccccc1
inactive: cytotoxicity call (HSkMC) | cytotoxicity call (HepG2) | growth inhibition call (S. aureus RN4220)

COc1ccc(S(=O)(=O)Nc2cccc3c2O[C@H](CN(C)S(=O)(=O)c2cn(C)cn2)[C@H](C)CN([C@H](C)CO)C3=O)cc1
inactive: cytotoxicity call (HSkMC) | cytotoxicity call (HepG2) | growth inhibition call (S. aureus RN4220)
